Data taken from the supplement of paper PMC3334620.
Whole data set: some 33,000 sequences, median “E-score (-0.5 to 0.5)” near -0.043, cut for the highest 2% near 0.37. This is one part of the list.

Target: T1, Upc2 (UniProt Q12151)
T1 sequence: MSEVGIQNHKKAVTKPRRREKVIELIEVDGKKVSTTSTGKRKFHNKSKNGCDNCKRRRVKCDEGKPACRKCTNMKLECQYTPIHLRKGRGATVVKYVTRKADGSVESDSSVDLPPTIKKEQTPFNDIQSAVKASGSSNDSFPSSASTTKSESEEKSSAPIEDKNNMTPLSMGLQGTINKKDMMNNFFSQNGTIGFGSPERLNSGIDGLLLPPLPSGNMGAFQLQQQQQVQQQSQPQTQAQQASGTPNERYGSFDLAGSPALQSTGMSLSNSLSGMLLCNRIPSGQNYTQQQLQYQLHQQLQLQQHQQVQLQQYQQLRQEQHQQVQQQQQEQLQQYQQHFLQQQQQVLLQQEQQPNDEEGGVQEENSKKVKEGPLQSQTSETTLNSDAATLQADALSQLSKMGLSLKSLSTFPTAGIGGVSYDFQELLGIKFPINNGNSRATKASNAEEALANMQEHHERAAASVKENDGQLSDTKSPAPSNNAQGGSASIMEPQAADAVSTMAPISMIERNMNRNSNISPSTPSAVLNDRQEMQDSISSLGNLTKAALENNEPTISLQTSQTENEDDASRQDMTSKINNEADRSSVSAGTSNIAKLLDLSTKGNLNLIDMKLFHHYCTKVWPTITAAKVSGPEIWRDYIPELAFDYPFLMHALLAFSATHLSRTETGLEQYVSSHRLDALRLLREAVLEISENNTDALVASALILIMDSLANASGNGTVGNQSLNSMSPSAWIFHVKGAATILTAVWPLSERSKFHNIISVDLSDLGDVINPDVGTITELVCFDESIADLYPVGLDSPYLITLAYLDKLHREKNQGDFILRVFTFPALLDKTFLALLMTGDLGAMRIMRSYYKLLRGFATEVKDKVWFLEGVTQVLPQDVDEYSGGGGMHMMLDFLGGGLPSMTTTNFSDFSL
Assay: PBM E-score (8-mer binding enrichment) (E-score (-0.5 to 0.5)); higher = stronger / more preferred TF binding; most listed sequences are background and not binding sites
Settings: protein concentration: 200 nM; construct: GST-full length
Method in brief: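 Yeast transcription factors carrying a GST tag, as full-length proteins or DNA-binding domains, were produced by PURExpress in vitro transcription/translation. About 100-200 nM protein was applied to universal all-10-mer Agilent arrays, double-stranded by primer extension on fresh or once-stripped slides. Bound protein was detected with fluorescent anti-GST, and scans were normalised with masliner. The Universal PBM Analysis Suite gave each ungapped eight-base word, pooled with its reverse complement, an E-score, a modified Wilcoxon-Mann-Whitney statistic.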

Row | Sequence | PBM E-score
1 | AATCATCG | 0.118
2 | GGGCGACA | -0.251
3 | CGGTCCAC | -0.137
4 | AAGAGCCG | -0.101
5 | GGGCACGA | -0.0512
6 | GCCCCGGC | -0.11
7 | AGCTACTA | -0.0239
8 | GACTTATC | -0.147
9 | CACTTGAC | -0.0536
10 | AGAGACGC | -0.123
11 | CGGTTGAA | -0.0167
12 | GTACAGGA | 0.244
13 | ACTGTAAT | -0.0373
14 | ACGCCGTG | -0.0381
15 | ATTCTCAC | -0.0732
16 | CTAGAGCA | -0.192
17 | ATCTACTC | -0.0186
18 | GCTATGCA | -0.166
19 | ATCGGAGG | -0.133
20 | ACATGCGG | -0.00764
21 | AGTGGAGG | -0.13
22 | CCCATTTA | 0.0418
23 | CACAAGCC | -0.0933
24 | CGACGATC | 0.205
25 | AACAGTGT | -0.0329

Row | Sequence | PBM E-score
26 | CGCGACAA | 0.107
27 | AGCCACAT | 0.0577
28 | TAATATTA | 0.188
29 | CCTCTCGC | 0.0887
30 | ATCGCAAT | 0.0771
31 | CCACATAA | 0.00895
32 | CGGCGCAA | -0.0304
33 | ACGTCACT | -0.0547
34 | CTCACTTC | -0.0766
35 | GATTTGGC | 0.0042
36 | ATGCCCGA | 0.0914
37 | AGCATAGA | -0.165
38 | ATGGGGTC | -0.17
39 | TGAGGTAA | -0.236
40 | CGTAAACC | 0.364
41 | CGTCAAGA | -0.109
42 | TAGACCTA | 0.121
43 | CTTCTTTC | -0.188
44 | GCGCGAGA | 0.0691
45 | GCTTAAGC | 0.0508
46 | CTCGGATA | 0.3
47 | GATACACC | 0.0438
48 | AGGCCGGA | -0.0381
49 | ACGAACGT | 0.32
50 | CATAGACG | -0.143

Row | Sequence | PBM E-score
51 | GAAGTCTC | 0.0262
52 | CGGAAACA | 0.0351
53 | CGAGGGCC | 0.194
54 | AAAGGAGG | -0.129
55 | CAATAATC | 0.00408
56 | ATGATCAT | -0.141
57 | CAGATACG | 0.375
58 | AAACGCCT | 0.12
59 | AGATATGA | -0.0601
60 | CCACGTCA | -0.196
61 | GATCGTGA | -0.103
62 | AGATGTTA | -0.0817
63 | TGAATTCA | 0.0467
64 | AAAAAGTT | -0.0419
65 | GGACATCA | -0.0651
66 | CGAGTGAA | 0.146
67 | GAAATGTA | 0.00471
68 | CGTCTGCA | -0.00627
69 | CGCTCAGC | 0.153
70 | AAATCTCA | 0.168
71 | TGACCGCA | -0.127
72 | CAGAATAC | 0.113
73 | CTCGAAGA | -0.23
74 | ATCTAGAC | -0.0429
75 | GTCTGAGA | -0.098

Row | Sequence | PBM E-score
76 | GACTTCCA | -0.202
77 | CATCTCAA | -0.13
78 | AGCAAATC | -0.0847
79 | GGAGAGGA | -0.284
80 | AGGGTCAC | -0.22
81 | CCAATCCG | -0.0814
82 | GAGGGTTA | -0.0346
83 | TAAATGTA | 0.0369
84 | CCCCGCAC | 7e-05
85 | AATGTAAC | -0.0595
86 | CATTCTCG | 0.0534
87 | CCATGGGC | -0.368
88 | GCCGACCC | -0.256
89 | ACTGTTGC | -0.0837
90 | GAGTCAAA | -0.229
91 | AGCTAAGA | -0.0858
92 | ACGTCATC | 0.0767
93 | CGCCCATA | 0.102
94 | TAGTCAGA | -0.16
95 | GCCGTGTA | 0.231
96 | ATTGATAC | 0.173
97 | CACATAAA | 0.192
98 | GGTGTGAC | -0.143
99 | CAACACTC | -0.0828
100 | GAGGGTCC | -0.162

Row | Sequence | PBM E-score
101 | AACTCATG | -0.0272
102 | AATTGCAG | -0.0277
103 | ACGGCACG | 0.206
104 | CGTATGTA | 0.387
105 | TACTCACA | -0.0916
106 | CGAGCGAA | 0.199
107 | CGTCGTAG | 0.37
108 | TTGCCCAA | -0.0249
109 | GTCGAGAC | 0.0577
110 | CCTTGACC | -0.326
111 | GGCGAGAA | -0.0746
112 | AGTCCGTG | -0.0992
113 | CTGAACTA | -0.104
114 | CCTACCTA | -0.153
115 | AAAGCCGA | -0.111
116 | CAGAGCCC | -0.207
117 | CCGTGGGA | -0.295
118 | CATGATCC | -0.166
119 | GCGCCGAA | -0.0176
120 | ACCCAGCC | -0.218
121 | GGCGGTCA | 0.0352
122 | TAGTTAAA | 0.0817
123 | GCAAGAGA | -0.0845
124 | GCTCGTAC | 0.477
125 | GGCGGTTA | 0.0382

Row | Sequence | PBM E-score
126 | ACCGATTC | 0.00366
127 | GAATCATC | 0.0541
128 | CATCTGAA | -0.154
129 | AGTCAGGC | -0.087
130 | CGTCGTCA | 0.055
131 | TCGAACCA | -0.125
132 | CTGTGATA | -0.196
133 | ATCCGAAT | 0.218
134 | ATAGACTG | -0.0992
135 | CGAAACTC | 0.0921
136 | CCGGAACG | 0.376
137 | AAGGATCT | -0.19
138 | AGCAGGAA | -0.0702
139 | ACGACCAG | 0.296
140 | TGTATTAA | 0.126
141 | ACCTCTAA | -0.0519
142 | AGGCTGGG | -0.222
143 | CGATATTC | 0.0159
144 | AATACATG | -0.187
145 | ACGCGCGC | 0.214
146 | AAACCCCA | -0.171
147 | CTATCAGA | -0.13
148 | CTGTGGTC | -0.0389
149 | AGCATTAA | 0.0875
150 | GTCTTCCA | -0.313

Row | Sequence | PBM E-score
151 | ACATAATG | -0.0246
152 | ATAATTAC | 0.0651
153 | ACGATAAT | 0.335
154 | ATCCGCAG | -0.0954
155 | CGCTATAG | -0.00468
156 | GCACGTAA | 0.0974
157 | GTAGTAAA | 0.0535
158 | ACAACTAC | -0.129
159 | GTCTTCAC | -0.0357
160 | GGGGCCTA | -0.225
161 | CTATCAAG | -0.158
162 | AGATATAC | 0.243
163 | AATGGAGG | -0.251
164 | ACAGGAGG | -0.169
165 | GCGACGGA | 0.0438
166 | ATAGAGCC | 0.00631
167 | AAGGACAG | -0.169
168 | GTTAGGTA | 0.18
169 | ATATCGTA | 0.427
170 | CTGCGAAC | -0.0121
171 | AAAGACTC | -0.212
172 | ATATTAGA | 0.0328
